{
  "source": "PubChem BioAssay AID887",
  "about": "(National Center for Advancing Translational Sciences (NCATS), 2007)",
  "note": "Among all 74,000 compounds or so, about 1,100 (1.5%) were called active. The inconclusive results got no clear call from the source; some entries with a clear call stand among them for comparison. Calls come from the whole dose curve; as a rule, active = well fitted inhibition curve with a large enough effect; inconclusive = small, poorly fitted or top-dose-only effect; inactive = no such curve, though single readings can be large or run the other way. No potency is given beside an inconclusive call; the fits are too rough. % is set by controls: 0 for no effect and ±100 for the full control effect; potency is the fitted concentration of half-maximal effect; tags give direction and shape of the fitted curve.",
  "data": [
    {"target": "Polyunsaturated fatty acid lipoxygenase ALOX15 (Homo sapiens) (UniProt P16050)", "sequence (P16050 whole entry, looked up)": "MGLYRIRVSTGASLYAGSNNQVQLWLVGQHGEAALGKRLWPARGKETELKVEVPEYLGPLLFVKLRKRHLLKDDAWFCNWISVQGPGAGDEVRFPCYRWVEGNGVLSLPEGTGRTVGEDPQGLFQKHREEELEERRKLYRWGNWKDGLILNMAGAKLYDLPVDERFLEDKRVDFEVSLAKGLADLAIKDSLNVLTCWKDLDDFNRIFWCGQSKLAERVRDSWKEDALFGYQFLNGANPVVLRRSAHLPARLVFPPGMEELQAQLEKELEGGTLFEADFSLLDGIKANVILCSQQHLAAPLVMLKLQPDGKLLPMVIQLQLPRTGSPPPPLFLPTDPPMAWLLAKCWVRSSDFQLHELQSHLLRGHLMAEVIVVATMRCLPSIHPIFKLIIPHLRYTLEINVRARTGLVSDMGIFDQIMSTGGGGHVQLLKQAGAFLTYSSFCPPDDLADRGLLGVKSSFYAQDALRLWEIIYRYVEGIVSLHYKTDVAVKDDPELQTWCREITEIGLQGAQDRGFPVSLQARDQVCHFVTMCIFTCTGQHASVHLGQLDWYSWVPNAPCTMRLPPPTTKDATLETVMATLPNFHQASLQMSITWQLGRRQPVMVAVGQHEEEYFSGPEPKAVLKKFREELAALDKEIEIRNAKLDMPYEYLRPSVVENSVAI", "assay": "qHTS Assay for Inhibitors of 15-hLO (15-human lipoxygenase); note: nearly all actives have a fitted effect of over 55% in size", "settings": "purified 15hLO-1, xylenol orange hydroperoxide absorbance; activity change, negative = inhibition: at 57.1 µM (top of the series) unless noted", "summary_of_the_method": "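Quantitative HTS in 25 mM Hepes pH 7.5 containing 0.01% Triton X-100: human 15hLO-1 at 40 nM, arachidonic acid at 50 uM, 6 min turnover. Product quantified via ferrous oxidation/xylenol orange, 573:405 nm absorbance ratio.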", "values": [
      {"compound": "N#Cc1c(NC(=O)c2cc(C3CC3)on2)sc2c1CCC2", "Potency": "inconclusive [inhibitor, partial curve]"},
      {"compound": "CCCCOC(=O)n1ccc(C(=O)Nc2ccccc2OC)n1", "Potency": "inconclusive [inhibitor, partial curve]"},
      {"compound": "CCOc1cc(NC(=O)c2ccco2)c(OCC)cc1NC(=O)Cc1cccc(OC)c1", "Potency": "inconclusive [inhibitor, partial curve]"},
      {"compound": "CC1(C)CC(=O)C2=C(C1)NCN(CCCN1CCOCC1)C2", "Potency": "inconclusive [inhibitor, partial curve]"},
      {"compound": "CN(C)c1ccc(CNC(=O)C2(C)C=CCN2C(=O)c2ccccc2)cc1", "note": "(stereo not given)", "Potency": "inconclusive [inhibitor, single point]"},
      {"compound": "Cc1ccc(-n2c(N)c(C(N)=O)sc2=S)c(C)c1", "Potency": "inconclusive [inhibitor, single point]"},
      {"compound": "O=C1CC(c2ccco2)Cc2nc(N3CCc4ccccc4C3)ncc21", "note": "(stereo not given)", "Potency": "inconclusive [inhibitor, partial curve, poor fit]"},
      {"compound": "Cc1ccc(C2CC(=O)N3CN(c4ccc(Br)cc4)CSC3=C2C#N)o1", "note": "(stereo not given)", "Potency": "active: 2.51 µM"},
      {"compound": "COc1ccc2[nH]c(=O)c(C(c3nnnn3C3CCCC3)N(C)C3CCCCC3)cc2c1", "note": "(stereo not given)", "Potency": "inconclusive [inhibitor, partial curve]"},
      {"compound": "COc1ccc(-n2nc3cc(C)c(N)c(Br)c3n2)cc1", "Potency": "active: 15.8 µM"},
      {"compound": "c1coc(-c2nc3nc4ccccc4nc3n2CC2CCCO2)c1", "note": "(stereo not given)", "Potency": "inconclusive [inhibitor, single point]"},
      {"compound": "CN1C=CC2=C(C#N)C(N)C(C#N)(C#N)C(c3ccccc3)C2C1", "note": "(stereo not given)", "Potency": "inconclusive [inhibitor, full curve, poor fit]"},
      {"compound": "COc1ccc(/C=C/N(CCc2ccc(OC)c(OC)c2)C(=O)C(F)(F)F)cc1", "activity change, negative = inhibition": "inactive: 3.49% [at 11.4 µM]"},
      {"compound": "Cc1cc(Br)ccc1OCC(=O)N(Cc1nc(-c2ccccc2)no1)C(C)C", "Potency": "inconclusive [inhibitor, single point]"},
      {"compound": "Oc1cc(O)c2c(c1)O[C@@H](c1ccc(O)c(O)c1)[C@H](O[C@@]1(c3cc(O)c(O)c(O)c3)Oc3cc(O)cc(O)c3[C@H](O)[C@@H]1O)C2", "Potency": "active: 1 µM"},
      {"compound": "O=C(c1c[nH]c2ccc(S(=O)(=O)N3CCOCC3)cc2c1=O)N1CCCC1", "activity change, negative = inhibition": "inactive: 0.145%"},
      {"compound": "COc1cc2cc(C(c3nnnn3C3CCCC3)N3CCCCCC3)c(=O)[nH]c2cc1OC", "note": "(stereo not given)", "Potency": "inconclusive [inhibitor, single point]"},
      {"compound": "CN1c2ccccc2C(C)(C)C12CCCC(=O)N2", "note": "(stereo not given)", "Potency": "inconclusive [inhibitor, single point]"},
      {"compound": "CCOC(=O)N1CCC(N2C(=O)c3ccccc3C2Nc2ccccc2C)CC1", "note": "(stereo not given)", "Potency": "inconclusive [inhibitor, full curve]"},
      {"compound": "CCc1c(C)[nH]c(=S)c(C#N)c1C", "Potency": "inconclusive [inhibitor, single point]"},
      {"compound": "CC(=O)N1CCN(c2ccccc2NC(=O)c2cc(Br)ccc2Cl)CC1", "activity change, negative = inhibition": "inactive: -4.79%"},
      {"compound": "Cc1c(N2C(=O)c3ccc4c5c(ccc(c35)C2=O)CC4)c(=O)n(-c2ccccc2)n1C", "Potency": "active: 25.1 µM"},
      {"compound": "COc1cccc(NC(=O)CN2C(=O)COc3ccc(Cl)cc32)c1", "Potency": "inconclusive [inhibitor, partial curve]"},
      {"compound": "COc1ccc(CCNC(=O)CC2Nc3ccccc3NC2=O)cc1OC", "note": "(stereo not given)", "activity change, negative = inhibition": "inactive: 7.28%"},
      {"compound": "CC(=O)NC1Sc2ccccc2N=C1c1ccccc1", "note": "(stereo not given)", "Potency": "inconclusive [inhibitor, single point]"},
      {"compound": "c1ccc2cc(-c3cc(-c4cc(-c5ccc6ccccc6c5)on4)no3)ccc2c1", "activity change, negative = inhibition": "inactive: -15.7% [at 11.4 µM]"},
      {"compound": "CN(C)c1ccc(C=Nc2ccc(N(C)C)cc2)cc1", "Potency": "inconclusive [inhibitor, partial curve]"},
      {"compound": "Nc1nc(N)c2nc(CNc3ccc(C(=O)N[C@H](CCC(=O)O)C(=O)O)cc3)cnc2n1", "activity change, negative = inhibition": "inactive: -17.9%"},
      {"compound": "[O-][N+]1=c2ccc(Nc3ccccc3)cc2=NC12CCCCC2", "Potency": "active: 3.16 µM"},
      {"compound": "CC1(C)CC(=O)C2=C(C1)N(c1ccccc1)C(N)=C(C#N)C2c1cccnc1", "note": "(stereo not given)", "Potency": "inconclusive [inhibitor, single point]"},
      {"compound": "C[C@@]1(O)C(O)[C@@H](CO)O[C@H]1n1cnc2c(NC3CCCC3)nc(Cl)nc21", "note": "(stereo not given in full)", "Potency": "inconclusive [inhibitor, partial curve]"},
      {"compound": "Cc1nc(NCCO)c2nc(-c3ccccc3)n(CC3CCN(C)CC3)c2n1", "activity change, negative = inhibition": "inactive: 2.86%"},
      {"compound": "O=c1c2ccccc2nnn1CSc1nnc2sc3ccccc3n12", "Potency": "inconclusive [inhibitor, single point]"},
      {"compound": "COc1ccc(-c2cc(-c3ccccc3O)[nH]n2)cc1OC", "Potency": "inconclusive [inhibitor, partial curve]"},
      {"compound": "O=C(Nc1cccc(F)c1)N1CCCC2(CCN(C(=O)c3ccco3)CC2)C1", "Potency": "active: 0.316 µM"},
      {"compound": "COc1cccc(-c2cc3nc(-c4ccccc4)cc(N4CCC5(CC4)OCCO5)n3n2)c1", "activity change, negative = inhibition": "inactive: -4.93%"},
      {"compound": "CC1(C)CC(N=C=O)CC(C)(CN=C=O)C1", "note": "(stereo not given)", "activity change, negative = inhibition": "inactive: -12.2%"},
      {"compound": "CCCc1[nH]nc2c1C(c1ccccc1OC)C(C#N)=C(N)O2", "note": "(stereo not given)", "Potency": "inconclusive [inhibitor, partial curve, poor fit]"},
      {"compound": "CC(NC(=O)c1ccco1)C(c1cccs1)N1CCN(c2ccc(F)cc2)CC1", "note": "(stereo not given)", "Potency": "inconclusive [inhibitor, partial curve]"},
      {"compound": "O=C(Nc1ccccc1C(=O)NCc1ccco1)c1ccccc1", "activity change, negative = inhibition": "inactive: -0.853%"},
      {"compound": "O=C(CSc1nc2ccccc2s1)NC(=O)NCc1ccco1", "Potency": "inconclusive [inhibitor, partial curve]"},
      {"compound": "COc1ccc(CCNc2nc(-c3ccco3)cc(C(F)(F)F)n2)cc1OC", "activity change, negative = inhibition": "inactive: -23.5%"},
      {"compound": "Cc1cccc(CNc2ncnc3ccc(-c4cccnc4)cc23)c1", "Potency": "inconclusive [inhibitor, single point]"},
      {"compound": "O=C1CC(C(F)(F)C(F)(F)C(F)(F)C(F)F)=Nc2ccccc2N1", "activity change, negative = inhibition": "inactive: 0.203%"},
      {"compound": "CN(C)c1ccc(/C=C/c2ccncc2)cc1", "Potency": "inconclusive [inhibitor, single point]"}
    ]}
  ]
}
